Reference: US20070259417A1 (published 2007)
Residue numbers refer to the chain shown, from its start.

B1: EpiNE7.21 display phage (designed binder)
chain: RPDFCLEPPYTGPCVAMFPRYFYNAKAGLCQTFHYGGCWGQGNNFKSAEDCMRTCGGA
notes: not shown: M13 gene III protein, mature
B2: EpiNE7.32 display phage (designed binder)
chain: B1 chain with H34G, Q41E
notes: as for B1
B3: EpiNE7.22 display phage (designed binder)
chain: B1 chain with Q41E
notes: as for B1
B4: EpiNE7.27 display phage (designed binder)
chain: B1 chain with H34N, Q41K
notes: as for B1
B5: EpiNE7.33 display phage (designed binder)
chain: B1 chain with H34E, G40A, Q41N
notes: as for B1
B6: EpiNE7.40 display phage (designed binder)
chain: B1 chain with H34T, W39H, Q41N
notes: as for B1
B7: EpiNE7.38 display phage (designed binder)
chain: B1 chain with H34Y, G40A, Q41K
notes: as for B1
B8: EpiNE7.28 display phage (designed binder)
chain: B1 chain with H34T, W39L, Q41H
notes: as for B1
B9: EpiNE7.30 display phage (designed binder)
chain: B1 chain with H34K, G40A, Q41E
notes: also called EpiNE7.34; EpiNE7.35; not shown: M13 gene III protein, mature
B10: EpiNE7.37 display phage (designed binder)
chain: B1 chain with H34M, W39Q, Q41K
notes: as for B1
B11: EpiNE7.26 display phage (designed binder)
chain: B1 chain with H34K, Q41H
notes: as for B1
B12: EpiNE7.25 display phage (designed binder)
chain: B1 chain with H34P, G40A, Q41K, S47L
notes: as for B1
B13: EpiNE7.29 display phage (designed binder)
chain: B1 chain with H34T, W39L, Q41Y
notes: as for B1
B14: EpiNE7.39 display phage (designed binder)
chain: B1 chain with H34M, Q41D
notes: as for B1
B15: EpiNE7.24 display phage (designed binder)
chain: B1 chain with H34K, W39H, Q41N
notes: as for B1

molecular target: T1, human neutrophil elastase (human, UniProt P08246 30-247); assay: clone from pH 2.0 eluate after 3 rounds of affinity selection of the KLMUT library on immobilized HNE (second fractionation)
T1 construct: also called HNE; immobilized HNE
T1 sequence (looked up): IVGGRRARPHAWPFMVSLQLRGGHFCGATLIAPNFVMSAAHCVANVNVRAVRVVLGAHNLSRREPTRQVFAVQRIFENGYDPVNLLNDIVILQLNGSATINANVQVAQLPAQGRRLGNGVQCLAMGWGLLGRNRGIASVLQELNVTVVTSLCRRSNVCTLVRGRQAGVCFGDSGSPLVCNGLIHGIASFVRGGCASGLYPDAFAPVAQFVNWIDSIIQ

Binder	binding result
B1	binds
B2	binds
B3	binds
B4	binds
B5	binds
B6	binds
B7	binds
B8	binds
B9	binds
B10	binds
B11	binds
B12	binds
B13	binds
B14	binds
B15	binds
